Consider 92 compounds from PubChem BioAssay AID463173 (ICCB-Longwood Screening Facility, Harvard Medical School, 2010).

Out of some 52,000 compounds screened, about 1,700 (3.3%) were called active. Rule as the data show it: active = survival mostly below about 52% (no sharp cut-off); inactive = mostly above about 56%. Some of the results follow.

The assay deals with Wild type. Nature of the assay: growth inhibition of S. aureus wild type versus tarO mutant, primary screen, teichoic acid synthesis inhibitors, RN4220, OD600 (AID 463173). Particulars: S. aureus RN4220 wild type/DeltatarO growth, OD600, 18 h, stronger effect = lower value, screened at 18.75 µg/mL (by protocol).
Consider `O=C(CCn1c(=O)c2ccccc2n(Cc2ccc(Cl)cc2)c1=O)NCc1ccc2c(c1)OCO2`, for which the survival is inactive: 110%. With `CN(c1ccc(Cl)cc1)S(=O)(=O)c1nnc(NC(=O)c2ccco2)s1` the figure was inactive: 69%. For `CCOC(=O)c1[nH]c(C)c(C(=O)NCCc2ccccc2)c1C`, the survival is inactive: 92%.

`CCOc1ccccc1NC(=O)CCS(=O)(=O)c1ccc(OC)cc1`: the survival is inactive: 71%.

As for `CCc1ccc(NC(=O)c2cc(CN3CCOCC3)on2)cc1`, the survival was inactive: 92%. To `CCCCC(=O)Nc1cccc(-c2nc3ccccc3s2)c1` belongs inactive: 43%; to `CCN1C(=O)C2C(c3ccco3)NC(C(=O)OC)(c3ccccc3)C2C1=O` (configuration not stated), inactive: 101%. To `Cc1cccc(-n2ccnc2SCC(=O)Nc2cc(C(F)(F)F)ccc2Cl)c1` belongs inactive: 72%; to `CCCCN(C)CC(O)Cn1cc(/C=C/C(=O)c2ccc(OCC)cc2)c2ccccc21` (configuration not stated), active: 21%; to `COc1ccc(-n2ncc3c(=O)n(CC(=O)NC(C)C)cnc32)cc1`, inactive: 96%. With `CCOC(=O)C1=C(CN(C)Cc2ccccc2)NC(=O)NC1c1ccc(OC(C)C)cc1` (configuration not stated) the figure was inactive: 81%; with `Cc1ccc2nc(NCCc3ccc(Cl)cc3)c3nncn3c2c1`, inactive: 71%.

`COc1ccc(C)cc1NC(=O)Cc1ccc(NC(=O)N2CCCCc3ccccc32)cc1`: the survival was inactive: 60%. With `CC(C)c1ccc(Nc2c(-c3ccsc3)nc3ccc(Cl)cn23)cc1` the figure was inactive: 95%; with `FC(F)(F)c1nnc2c3ccccc3c(Cl)nn12`, inactive: 113%. Consider `CCn1cc(C(=O)NCc2ccccc2Cl)c(=O)c2cc(S(=O)(=O)N3CCOCC3)ccc21`, for which the survival is inactive: 74%. In the case of `CCC(=O)C1=C(c2ccccc2)N(C(=O)CC)n2c(nnc2C2CCCCC2)S1`, the survival is active: 14%. As for `O=C(Nc1ccccc1[N+](=O)[O-])c1csnn1`, the survival is inactive: 76%. To `CCCOc1ccc(CNC(=O)c2cc3oc4ccccc4c3n2C)cc1` belongs inactive: 90%; to `NNc1nc(N2CCOCC2)nc(N2CCOCC2)n1`, inactive: 106%; to `Cc1ccc(CNC(=O)c2ccc(NC(=O)c3nsc4ccccc34)cc2)cc1`, inactive: 70%.

For the compound `COC(=O)c1c(SC)nc2ccccc2c1OCc1cc(C)ccc1C`, the survival was inactive: 148%. As for `O=C1C2CCCN2C(=O)N1c1ccc(Br)cc1` (configuration not stated), the survival was inactive: 120%. Regarding `O=C(Nc1ccc2nc(SCC(=O)N3CCc4ccccc43)sc2c1)c1ccc(Cl)cc1`, the survival was inactive: 89%. Consider `O=C(CSc1nc(-c2cccs2)cc(C(F)(F)F)n1)Nc1ccccc1Cl`, for which the survival was inactive: 99%. On to `Cc1cccc(C(=O)Nc2sc3c(c2C(=O)Nc2ccccc2)CCC3)c1`, for which the survival is inactive: 67%.

Turning to `Cc1ccc(NC(=O)CN2C(=O)C(c3ccc(F)cc3)=NC2(C)C)c(C)c1`, the survival is inactive: 85%. Take `CCOc1ccccc1NC(=O)C(=O)NCC(c1cccnc1)N1CCN(c2ccccc2)CC1` (configuration not stated): the survival was inactive: 90%. On to `Cc1ccc(C=C2C(=O)N(C)C(=O)N(C)C2=O)cc1`, for which the survival was inactive: 96%.

On to `O=S(=O)(c1ccccc1)c1nnn2c1nc(NC1CCCCCC1)c1sccc12`, for which the survival is inactive: 89%. With `Cc1cccc(Cc2c(C)nc3nc(SCc4cccc(F)c4)nn3c2C)c1` the figure was inactive: 73%. As for `CCOc1ccc(CCNC(=O)CN2C(=O)COc3ccc(S(=O)(=O)N(CC)CC)cc32)cc1`, the survival is inactive: 119%. With `Cc1ccc(Cn2ccnc2SCC(=O)NC2CCCC2)cc1` the figure was inactive: 68%. `COc1cc(S(=O)(=O)n2ccnc2C(C)C)ccc1Br`: the survival is inactive: 64%. To `COc1ccccc1CNC(=O)C(=O)NCC(c1cccnc1)N1CCN(c2ccc(F)cc2)CC1` (configuration not stated) belongs inactive: 83%; to `Cc1ccc(-c2nc(S(=O)(=O)c3ccc(C)cc3)c(N3CCCCC3)o2)cc1`, active: 0%; to `COc1nc(C)ccc1-c1noc(-c2ccccc2)n1`, inactive: 100%. Regarding `O=S(=O)(c1cccc2nsnc12)N1CCOCC1`, the survival was inactive: 101%. With `COc1ccc(Cl)cc1NC(=O)Cn1nnc(C(=O)NCc2cccs2)c1N` the figure was inactive: 85%. With `COc1ccccc1NC(=O)COC(=O)CC(C)(C)CC1=NS(=O)(=O)c2ccccc2N1` the figure was active: -3%. With `COc1ccc2c(CNCc3ccco3)c(C(=O)O)n(Cc3ccccc3)c2c1` the figure was inactive: 91%; with `CC1CCc2c(sc3nc(SCC(=O)Nc4c[nH]c(=O)[nH]c4=O)[nH]c(=O)c23)C1` (configuration not stated), inactive: 107%. `COc1ccc(N2CCN(C(=O)c3c4c(nc5ccccc35)C(=O)N(C3CCCCC3)C4)CC2)cc1`: the survival is inactive: 130%.

For `COc1cccc(N2CC(NC(=O)C3CCCC3)CC2=O)c1` (configuration not stated), the survival is inactive: 64%.

For `O=C(Nc1ccc2nc(SCC(=O)N3CCCC3)sc2c1)c1cccc(F)c1`, the survival was inactive: 71%. To `CCc1ccc(-n2c(=O)c3ccc(C(=O)NCCc4ccccc4)cc3n(Cc3ccccc3C#N)c2=O)cc1` belongs inactive: 131%. To `COC(=O)c1c(-c2cccs2)csc1NC(=O)c1ccc(C(C)(C)C)cc1` belongs inactive: 82%. To `CSc1ccc(C2c3[nH]c4ccccc4c3CCN2C(=O)CCC2CCCC2)cc1` (configuration not stated) belongs inactive: 83%. With `COc1ccc(-c2nc3ccccc3o2)cc1NC(=O)c1ccc(OCC(C)C)cc1`, the survival is inactive: 55%. Regarding `Cc1ccc2c(=O)cc(C(=O)Nc3c(C(=O)c4ccccc4)oc4ccccc34)oc2c1`, the survival was inactive: 100%. Regarding `CCOc1ccc(NS(=O)(=O)c2ccc3[nH]cc(C(=O)N(C)C4CCCCC4)c(=O)c3c2)cc1`, the survival was inactive: 60%.

Turning to `CCOC(=O)c1c(-c2ccc(C)cc2C)csc1NC(=O)c1ccccc1Cl`, the survival is inactive: 64%. To `NC(=O)C1CCN(C(=O)c2ccc3c(c2)N(Cc2cccc(Cl)c2)C(=O)c2ccccc2S3(=O)=O)CC1` belongs inactive: 69%; to `O=C(NCCCN1CCCCC1)c1ccc2c(c1)sc1nc(-c3ccc(F)cc3)cn12`, inactive: 43%. To `Cc1cccc2cc(C#N)c(SCCN3CCCCC3)nc12` belongs inactive: 105%; to `COC(=O)c1c(-c2cccs2)csc1NC(=O)COc1ccccc1`, inactive: 81%; to `COc1ccc(C2C(=O)N(C3CCCCCC3)CC(=O)N2Cc2ccccc2)cc1` (configuration not stated), inactive: 67%. Regarding `Cc1cc(N2CCOCC2)nc([S+]2CCCC2)n1`, the survival was inactive: 101%. To `COCCNC(=O)Cn1cc2c(n1)-c1c(oc(C(=O)N3CCCC3)c1C)CC2` belongs inactive: 87%; to `NC(=O)Cn1c(=O)n(CCCCCC(=O)NCc2ccccc2Cl)c(=O)c2sccc21`, inactive: 91%; to `C=CCn1c(SCC(=O)Nc2ccc(F)cc2)nc2ccccc2c1=O`, inactive: 107%. To `COc1ccc(Cl)cc1S(=O)(=O)n1ccnc1` belongs inactive: 109%. To `CC(CNC(=O)c1ccc(Nc2nc3ccccc3n3nnnc23)cc1)c1ccccc1` (configuration not stated) belongs inactive: 72%; to `COc1ccc(OC(=O)CSc2nnc(-c3ccc(F)cc3)o2)cc1`, inactive: 118%.

Turning to `CCCn1c2ccccc2c2cnn(CC(=O)NC(C)CC)c(=O)c21` (configuration not stated), the survival was inactive: 64%.

Turning to `CCCCOC(=O)/C(C#N)=C/c1ccc(-c2ccc(Br)cc2)o1`, the survival is inactive: 84%. For the compound `CCC(=O)N1CCN(c2nc3c(C)cccc3s2)CC1`, the survival was inactive: 80%.

On to `Cc1ccc([N+](=O)[O-])c(Oc2ncnc3c2oc2ccccc23)c1`, for which the survival was inactive: 95%.

For the compound `N#CC1=C(N)Oc2c(c(=O)oc3ccccc23)C1`, the survival is inactive: 88%. To `Cc1ccc(N2C(=O)CSC23C(=O)N(CC(=O)Nc2ccc(C)cc2C)c2ccccc23)cc1` (configuration not stated) belongs inactive: 71%; to `Cn1c(Cc2cccs2)nnc1SCC(=O)N1CCCc2ccccc21`, inactive: 109%; to `CCc1cccc(C)c1NC(=O)c1nc2ccccc2nc1N1CCCCC1`, inactive: 74%.

For the compound `COc1ccc2c(Sc3ccccc3)c(C(=O)N3CCC(C)CC3)[nH]c2c1`, the survival was inactive: 60%.

As to `Cc1ccc(NC(=O)CCCN2C(=O)COc3ccc(C)cc32)c(C)c1`, the survival is inactive: 121%. To `Cc1ccc(CNC(=O)CN2C(=O)CSc3ccc(S(=O)(=O)N4CCCC4)cc32)cc1` belongs inactive: 81%; to `CCc1ccc(C(=O)CSc2nc(-c3ccccc3)nc3c2CCCC3)cc1`, inactive: 73%. To `Cc1ccc(C)c(N2CCN(S(=O)(=O)c3ccc4c(c3)CCCN4C(=O)C3CCC3)CC2)c1` belongs inactive: 74%; to `COc1ccc2nc3sc(C(=O)N4CCN(c5ccc(F)cc5)CC4)cc3cc2c1`, inactive: 79%; to `O=C(NCCn1cnc2cccnc21)N(c1ccccc1)c1ccccc1`, inactive: 97%. Regarding `Cc1cc2oc(C(=O)Nc3sc4c(c3C(=O)NCc3ccccc3)CCCC4)cc(=O)c2cc1C`, the survival was inactive: 82%. To `COc1ccc(CNS(=O)(=O)c2ccc(F)c(C(=O)Nc3c(C)cc(C)cc3C)c2)cc1` belongs inactive: 80%. With `CCOC(=O)c1cc(-c2ccc(OC)cc2)n(CCC(=O)Nc2cccc(C(C)=O)c2)c1C` the figure was inactive: 75%; with `COc1cccc(-c2nc3c(c(SCc4ccccc4Cl)n2)Cc2c(CO)cnc(C)c2O3)c1`, inactive: 87%. To `CN(C)c1ccc(CNC(=O)CN2C(=O)CCn3nc(-c4cn(C)c5ccccc45)cc32)cc1` belongs inactive: 53%; to `COc1ccc(-c2noc(CN(C(=O)Cc3ccc(C)cc3)C(C)C)n2)cc1`, active: 5%. On to `CCOC(=O)c1cc2occc2n1CC`, for which the survival is inactive: 115%. To `CCC(C)NC(=O)CSc1nnc(-c2ccc(C)cc2)c(-c2ccc(C)cc2)n1` (configuration not stated) belongs inactive: 73%; to `COCCCNC(=O)c1sc2nc(C)c(C(=O)Nc3ccc(C)cc3C)c(-c3ccc(Br)cc3)c2c1N`, inactive: 87%.

Consider `Cc1ccc(CSCCC(=O)N2CCN(c3cc(C)ccc3C)CC2)cc1`, for which the survival is inactive: 98%.

For the compound `CCCN(CCC)C(=O)C1CCCN(c2ncnc3onc(-c4ccc(F)cc4)c23)C1` (configuration not stated), the survival was inactive: 72%. For `COc1cccc(CNC(=O)C2CCN(C(=O)c3sccc3-n3cccc3)CC2)c1`, the survival was inactive: 77%. To `O=C(NCCCO)C(=O)Nc1c2c(nn1-c1ccccc1)CSC2` belongs inactive: 85%.
